# In the supplement of paper PMC10369915:
# The other results are listed elsewhere or left out. No stated cut-off is given here; in the data, active = 3.2 or more and inactive = the rest. Most of these values are background signal.
# Target: SHP2 C-SH2 domain E139D
# Experiment: enrichment score (SH2-bound / input frequency) (ratio); bacterial display of known human phosphotyrosine sites (pTyr-Var adds point mutants) read by sequencing; higher = stronger binding; tyrosines were phosphorylated by kinases first
# Conditions: peptide library: Human pTyr
# 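Further: displayed peptides selected on beads carrying the immobilized SH2 domain, with library peptides lacking any tyrosine serving as negative controls.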
row,Binder,enrichment score
1,FGGEPLSYTRFSLAR [TFR1_HUMAN_20],inactive: 0.991
2,CETVISAYTDMEEIG [BCAP_HUMAN_263_YA],inactive: 1.22
3,KGRFAEVYKAKLKQN [TGFBR2_HUMAN_259],inactive: 2.35
4,AKGNLQEYLTRHVIS [TGFBR2_HUMAN_336],inactive: 1.43
5,GQVGTARYMAPEVLE [TGFBR2_HUMAN_424],inactive: 0.722
6,SGDKDHLYSTVCKPR [TGFI1_HUMAN_60],inactive: 1.13
7,EEITEEQYAMMRRAE [THEMIS_HUMAN_540_YA],inactive: 1.13
8,GEEADAVYESMAHLS [BCAP_HUMAN_419],inactive: 0.988
9,GFHTHADYVLEMNMA [THOP1_HUMAN_278],inactive: 0.759
10,NRGGAGNYRSNWQNA [THRAP3_HUMAN_107_YA],inactive: 1.49
11,WQNYRQAYSPRRGRS [THRAP3_HUMAN_118],inactive: 0.887
12,WQNARQAYSPRRGRS [THRAP3_HUMAN_118_YA],inactive: 0.727
13,ERNHPRVYQNRDFRG [THRAP3_HUMAN_68],inactive: 1.22
14,MLEERKTYVNTTLAE [TIE2_HUMAN_1102_YA],inactive: 0.836
15,AIKRMKEYASKDDHR [TIE2_HUMAN_860],inactive: 1.39
16,AKVEFGVYESGPRKS [BCAP_HUMAN_694],inactive: 0.851
17,SSRWSKDYDVCVCHS [TIRAP_HUMAN_86],inactive: 1.48
18,EQIIQEIYSQIQSKK [TKT_HUMAN_275],inactive: 1.08

# Target: SHP2 C-SH2 domain wild-type
# Experiment: as above
# Conditions: peptide library: Human pTyr
row,Binder,enrichment score
1,FGGEPLSYTRFSLAR [TFR1_HUMAN_20],inactive: 0.772
2,CETVISAYTDMEEIG [BCAP_HUMAN_263_YA],inactive: 1.04
3,KGRFAEVYKAKLKQN [TGFBR2_HUMAN_259],inactive: 3.1
4,AKGNLQEYLTRHVIS [TGFBR2_HUMAN_336],inactive: 1.42
5,GQVGTARYMAPEVLE [TGFBR2_HUMAN_424],inactive: 0.602
6,SGDKDHLYSTVCKPR [TGFI1_HUMAN_60],inactive: 1.05
7,EEITEEQYAMMRRAE [THEMIS_HUMAN_540_YA],inactive: 1.04
8,GEEADAVYESMAHLS [BCAP_HUMAN_419],inactive: 0.832
9,GFHTHADYVLEMNMA [THOP1_HUMAN_278],inactive: 0.62
10,NRGGAGNYRSNWQNA [THRAP3_HUMAN_107_YA],inactive: 1.28
11,WQNYRQAYSPRRGRS [THRAP3_HUMAN_118],inactive: 0.765
12,WQNARQAYSPRRGRS [THRAP3_HUMAN_118_YA],inactive: 0.797
13,ERNHPRVYQNRDFRG [THRAP3_HUMAN_68],inactive: 0.902
14,MLEERKTYVNTTLAE [TIE2_HUMAN_1102_YA],inactive: 0.593
15,AIKRMKEYASKDDHR [TIE2_HUMAN_860],inactive: 1.49
16,AKVEFGVYESGPRKS [BCAP_HUMAN_694],inactive: 0.802
17,SSRWSKDYDVCVCHS [TIRAP_HUMAN_86],inactive: 1.25
18,EQIIQEIYSQIQSKK [TKT_HUMAN_275],inactive: 0.941

# Target: SHP2 N-SH2 domain L43F
# Experiment: as above
# Conditions: peptide library: Human pTyr
row,Binder,enrichment score
1,FGGEPLSYTRFSLAR [TFR1_HUMAN_20],inactive: 0.84
2,CETVISAYTDMEEIG [BCAP_HUMAN_263_YA],inactive: 0.966
3,KGRFAEVYKAKLKQN [TGFBR2_HUMAN_259],inactive: 2.19
4,AKGNLQEYLTRHVIS [TGFBR2_HUMAN_336],inactive: 1.43
5,GQVGTARYMAPEVLE [TGFBR2_HUMAN_424],inactive: 0.69
6,SGDKDHLYSTVCKPR [TGFI1_HUMAN_60],inactive: 1.01
7,EEITEEQYAMMRRAE [THEMIS_HUMAN_540_YA],inactive: 1.28
8,GEEADAVYESMAHLS [BCAP_HUMAN_419],inactive: 0.958
9,GFHTHADYVLEMNMA [THOP1_HUMAN_278],inactive: 0.737
10,NRGGAGNYRSNWQNA [THRAP3_HUMAN_107_YA],inactive: 1.27
11,WQNYRQAYSPRRGRS [THRAP3_HUMAN_118],active: 4.76
12,WQNARQAYSPRRGRS [THRAP3_HUMAN_118_YA],inactive: 0.846
13,ERNHPRVYQNRDFRG [THRAP3_HUMAN_68],inactive: 0.832
14,MLEERKTYVNTTLAE [TIE2_HUMAN_1102_YA],inactive: 0.623
15,AIKRMKEYASKDDHR [TIE2_HUMAN_860],inactive: 1.16
16,AKVEFGVYESGPRKS [BCAP_HUMAN_694],inactive: 0.841
17,SSRWSKDYDVCVCHS [TIRAP_HUMAN_86],inactive: 1.24
18,EQIIQEIYSQIQSKK [TKT_HUMAN_275],inactive: 1.28

# Target: SHP2 N-SH2 domain T42A
# Experiment: as above
# Conditions: peptide library: Human pTyr
row,Binder,enrichment score
1,FGGEPLSYTRFSLAR [TFR1_HUMAN_20],inactive: 0.708
2,CETVISAYTDMEEIG [BCAP_HUMAN_263_YA],inactive: 1.22
3,KGRFAEVYKAKLKQN [TGFBR2_HUMAN_259],inactive: 2.92
4,AKGNLQEYLTRHVIS [TGFBR2_HUMAN_336],inactive: 1.21
5,GQVGTARYMAPEVLE [TGFBR2_HUMAN_424],inactive: 0.616
6,SGDKDHLYSTVCKPR [TGFI1_HUMAN_60],inactive: 1.03
7,EEITEEQYAMMRRAE [THEMIS_HUMAN_540_YA],inactive: 1.2
8,GEEADAVYESMAHLS [BCAP_HUMAN_419],inactive: 0.776
9,GFHTHADYVLEMNMA [THOP1_HUMAN_278],inactive: 0.668
10,NRGGAGNYRSNWQNA [THRAP3_HUMAN_107_YA],inactive: 1.41
11,WQNYRQAYSPRRGRS [THRAP3_HUMAN_118],inactive: 0.682
12,WQNARQAYSPRRGRS [THRAP3_HUMAN_118_YA],inactive: 0.843
13,ERNHPRVYQNRDFRG [THRAP3_HUMAN_68],inactive: 0.932
14,MLEERKTYVNTTLAE [TIE2_HUMAN_1102_YA],inactive: 0.772
15,AIKRMKEYASKDDHR [TIE2_HUMAN_860],inactive: 1.24
16,AKVEFGVYESGPRKS [BCAP_HUMAN_694],inactive: 0.652
17,SSRWSKDYDVCVCHS [TIRAP_HUMAN_86],inactive: 1.31
18,EQIIQEIYSQIQSKK [TKT_HUMAN_275],inactive: 1.21

# Target: SHP2 N-SH2 domain T52S
# Experiment: as above
# Conditions: peptide library: Human pTyr
row,Binder,enrichment score
1,FGGEPLSYTRFSLAR [TFR1_HUMAN_20],inactive: 0.847
2,CETVISAYTDMEEIG [BCAP_HUMAN_263_YA],inactive: 1.28
3,KGRFAEVYKAKLKQN [TGFBR2_HUMAN_259],inactive: 2.54
4,AKGNLQEYLTRHVIS [TGFBR2_HUMAN_336],inactive: 1.43
5,GQVGTARYMAPEVLE [TGFBR2_HUMAN_424],inactive: 0.764
6,SGDKDHLYSTVCKPR [TGFI1_HUMAN_60],inactive: 1.31
7,EEITEEQYAMMRRAE [THEMIS_HUMAN_540_YA],inactive: 0.845
8,GEEADAVYESMAHLS [BCAP_HUMAN_419],inactive: 0.978
9,GFHTHADYVLEMNMA [THOP1_HUMAN_278],inactive: 0.72
10,NRGGAGNYRSNWQNA [THRAP3_HUMAN_107_YA],inactive: 1.61
11,WQNYRQAYSPRRGRS [THRAP3_HUMAN_118],inactive: 0.777
12,WQNARQAYSPRRGRS [THRAP3_HUMAN_118_YA],inactive: 0.774
13,ERNHPRVYQNRDFRG [THRAP3_HUMAN_68],inactive: 0.893
14,MLEERKTYVNTTLAE [TIE2_HUMAN_1102_YA],inactive: 0.669
15,AIKRMKEYASKDDHR [TIE2_HUMAN_860],inactive: 1.27
16,AKVEFGVYESGPRKS [BCAP_HUMAN_694],inactive: 0.708
17,SSRWSKDYDVCVCHS [TIRAP_HUMAN_86],inactive: 1.46
18,EQIIQEIYSQIQSKK [TKT_HUMAN_275],inactive: 0.763

# Target: SHP2 N-SH2 domain wild-type
# Experiment: as above
# Conditions: peptide library: Human pTyr
row,Binder,enrichment score
1,FGGEPLSYTRFSLAR [TFR1_HUMAN_20],inactive: 0.876
2,CETVISAYTDMEEIG [BCAP_HUMAN_263_YA],inactive: 1.44
3,KGRFAEVYKAKLKQN [TGFBR2_HUMAN_259],active: 3.4
4,AKGNLQEYLTRHVIS [TGFBR2_HUMAN_336],inactive: 1.77
5,GQVGTARYMAPEVLE [TGFBR2_HUMAN_424],inactive: 0.733
6,SGDKDHLYSTVCKPR [TGFI1_HUMAN_60],inactive: 1.03
7,EEITEEQYAMMRRAE [THEMIS_HUMAN_540_YA],inactive: 0.996
8,GEEADAVYESMAHLS [BCAP_HUMAN_419],inactive: 1.06
9,GFHTHADYVLEMNMA [THOP1_HUMAN_278],inactive: 0.624
10,NRGGAGNYRSNWQNA [THRAP3_HUMAN_107_YA],inactive: 2.17
11,WQNYRQAYSPRRGRS [THRAP3_HUMAN_118],inactive: 0.854
12,WQNARQAYSPRRGRS [THRAP3_HUMAN_118_YA],inactive: 0.64
13,ERNHPRVYQNRDFRG [THRAP3_HUMAN_68],inactive: 0.902
14,MLEERKTYVNTTLAE [TIE2_HUMAN_1102_YA],inactive: 0.704
15,AIKRMKEYASKDDHR [TIE2_HUMAN_860],inactive: 1.44
16,AKVEFGVYESGPRKS [BCAP_HUMAN_694],inactive: 0.83
17,SSRWSKDYDVCVCHS [TIRAP_HUMAN_86],inactive: 1.61
18,EQIIQEIYSQIQSKK [TKT_HUMAN_275],inactive: 0.966
